# This is one part of the list. At the low end of the ranking, values are background and their order means little.
# Molecular target: GST-SBP-SLBP (stem-loop binding protein) (UniProt Q14493)
# Experiment: targeted RNA Bind-n-Seq;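 note: DESeq read counts versus GST-SBP nonspecific binding control pulldown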
# Settings: RBNS binding buffer: 25 mM Tris pH 7.5, 150 mM KCl, 3 mM MgCl2, 0.1% Tween, 0.5 mg/mL BSA, 1 mM DTT; 27 nM protein, 750 pM RNA pool; temperature not stated; high values mean tight binding
row,Sequence,binding signal (log2 fold change)
1,GGUCACGUCUCAAUCAACUCUUUUUCAGGAGUUUUCUCCUGCAAUCUCAACAGCUCGCAGUCAAG,-0.0408
2,GGUCACGUCUCAAUCAACUCCCUAGAGGGGGGGAAAACCCCUUUACCCUCAAUUUCAACAGCUCGCAGUCAAG,-0.729
3,GGUCACGUCUCAAUCAACUCAAGUCCAGGAGUUUACUCCUGCAUAUUCAACAGCUCGCAGUCAAG,-0.136
4,GGUCACGUCUCAAUCAACUCAUUUCCCAGGGAAACCCCUGGCUAUCUCAACAGCUCGCAGUCAAG,-0.112
5,GGUCACGUCUCAAUCAACUCAUCUUCCAGGGAAAUCCCUGGUAAUCUCAACAGCUCGCAGUCAAG,0.248
6,GGUCACGUCUCAAUCAACUCUUUCGAGGGGGGGAAAACCCCUUUACCCUCACAUUCAACAGCUCGCAGUCAAG,-0.078
7,GGUCACGUCUCAAUCAACUCAACUCCCAGGGAAAACCCUGGCAUAUUCAACAGCUCGCAGUCAAG,-0.00412
8,GGUCACGUCUCAAUCAACUCAAUCCCCAGGGAAAGCCCUGGCAAUCUCAACAGCUCGCAGUCAAG,-0.116
9,GGUCACGUCUCAAUCAACUCUUUUCCAGGAGUUUACUCCUGCAUACUCAACAGCUCGCAGUCAAG,0.0562
10,GGUCACGUCUCAAUCAACUCAUCGUCCAGGGAAAUCCCUGGUAUUUUCAACAGCUCGCAGUCAAG,0.0744
11,GGUCACGUCUCAAUCAACUCUUCUUCCAGGGAAAUCCCUGGCUUUCUCAACAGCUCGCAGUCAAG,-0.0155
12,GGUCACGUCUCAAUCAACUCAUUUCCCAGGGAAAACCCUGGCAUAUUCAACAGCUCGCAGUCAAG,0.255
13,GGUCACGUCUCAAUCAACUCUCAAGAGGGGGGGAAAACCCCUUUGCCCUCAUAUUCAACAGCUCGCAGUCAAG,-0.268
14,GGUCACGUCUCAAUCAACUCAUUUUCCAGGGAAAUCCCUGGCUUAUUCAACAGCUCGCAGUCAAG,-0.0954
15,GGUCACGUCUCAAUCAACUCUCAAGAGGGGGGGAAAACCCCUUUGCCCUCAACAUCAACAGCUCGCAGUCAAG,0.531
16,GGUCACGUCUCAAUCAACUCUCCAGAGGGGGGGAAAACCCCUUUGCCCUCACAAUCAACAGCUCGCAGUCAAG,-0.123
17,GGUCACGUCUCAAUCAACUCUAUUUCCAGGGAAACCCCUGGCUAUUUCAACAGCUCGCAGUCAAG,-0.0822
18,GGUCACGUCUCAAUCAACUCUUUCUCCAGGGAAAUCCCUGGCAAUGUCAACAGCUCGCAGUCAAG,-0.337
19,GGUCACGUCUCAAUCAACUCAAUCCCCAGGGAAACCCCUGGCUAAUUCAACAGCUCGCAGUCAAG,0.0284
20,GGUCACGUCUCAAUCAACUCAAUUUCCAGGGAAAACCCUGGCUAUUUCAACAGCUCGCAGUCAAG,-0.138
21,GGUCACGUCUCAAUCAACUCAUCCCCCAGGGAAAUCCCUGGCUAACUCAACAGCUCGCAGUCAAG,0.196
22,GGUCACGUCUCAAUCAACUCAACGCCAGGAGUUUUCUCCUGUAAUUUCAACAGCUCGCAGUCAAG,0.121
23,GGUCACGUCUCAAUCAACUCAGUCCCAGGAGUUUUCUCCUGCUUUCUCAACAGCUCGCAGUCAAG,-0.115
24,GGUCACGUCUCAAUCAACUCAACGCCAGGAGUUUUCUCCUGCAUAUUCAACAGCUCGCAGUCAAG,0.281

row,Sequence,binding signal (log2 fold change)
1,GGUCACGUCUCAAUCAACUCUUUCGCCAGGGAAACCCCUGGGUAUUUCAACAGCUCGCAGUCAAG,0.0915
2,GGUCACGUCUCAAUCAACUCAAUCUCCAGGGAAACCCCUGGCUUAUUCAACAGCUCGCAGUCAAG,-0.259
3,GGUCACGUCUCAAUCAACUCUUCUCCAGGAGUUUACUCCUGUAAUGUCAACAGCUCGCAGUCAAG,-0.0272
4,GGUCACGUCUCAAUCAACUCAGUCUCAGGAGUUUUCUCCUGCUAUUUCAACAGCUCGCAGUCAAG,-0.0075
5,GGUCACGUCUCAAUCAACUCAUUUCCAGGAGUUUACUCCUGUUAACUCAACAGCUCGCAGUCAAG,0.0524
6,GGUCACGUCUCAAUCAACUCCCAAGAGGGGGGGAAAACCCCUUUGCCCUCAAUGUCAACAGCUCGCAGUCAAG,-0.257
7,GGUCACGUCUCAAUCAACUCUAUCUCAGGAGUUUUCUCCUGUAAAUUCAACAGCUCGCAGUCAAG,-0.155
8,GGUCACGUCUCAAUCAACUCAUCUCCAGGAGUUUACUCCUGCAAACUCAACAGCUCGCAGUCAAG,0.00181
9,GGUCACGUCUCAAUCAACUCUUUUCCCAGGGAAAACCCUGGCUAUCUCAACAGCUCGCAGUCAAG,0.0183
10,GGUCACGUCUCAAUCAACUCUAUUCCCAGGGAAAACCCUGGCUUACUCAACAGCUCGCAGUCAAG,0.163
11,GGUCACGUCUCAAUCAACUCUUUCUCAGGAGUUUCCUCCUGCAUUCUCAACAGCUCGCAGUCAAG,0.0551
12,GGUCACGUCUCAAUCAACUCAAUUUCCAGGGAAAGCCCUGGUUUAUUCAACAGCUCGCAGUCAAG,0.0401
13,GGUCACGUCUCAAUCAACUCAACUUCCAGGGAAAUCCCUGGUUUACUCAACAGCUCGCAGUCAAG,-0.0814
14,GGUCACGUCUCAAUCAACUCUACUCCCAGGGAAAGCCCUGGUUUACUCAACAGCUCGCAGUCAAG,-0.317
15,GGUCACGUCUCAAUCAACUCAAUCUCCAGGGAAACCCCUGGCAUAUUCAACAGCUCGCAGUCAAG,0.255
16,GGUCACGUCUCAAUCAACUCAUCGCCAGGAGUUUUCUCCUGUAAUCUCAACAGCUCGCAGUCAAG,-0.147
17,GGUCACGUCUCAAUCAACUCAAGUCCCAGGGAAAUCCCUGGCUAAUUCAACAGCUCGCAGUCAAG,-0.32
18,GGUCACGUCUCAAUCAACUCUAUCCCCAGGGAAAACCCUGGUUUACUCAACAGCUCGCAGUCAAG,0.0972
19,GGUCACGUCUCAAUCAACUCUACUCCCAGGGAAAACCCUGGUAAAUUCAACAGCUCGCAGUCAAG,-0.0175
20,GGUCACGUCUCAAUCAACUCAUCUCCAGGAGUUUUCUCCUGUUAAGUCAACAGCUCGCAGUCAAG,-0.176
21,GGUCACGUCUCAAUCAACUCAUCCUCAGGAGUUUACUCCUGCAUAUUCAACAGCUCGCAGUCAAG,0.244
22,GGUCACGUCUCAAUCAACUCUAUUCCAGGAGUUUUCUCCUGUAAACUCAACAGCUCGCAGUCAAG,-0.191
23,GGUCACGUCUCAAUCAACUCAUUUCCCAGGGAAAUCCCUGGCAUUCUCAACAGCUCGCAGUCAAG,0.0458
24,GGUCACGUCUCAAUCAACUCAUUUUCAGGAGUUUACUCCUGCUUAGUCAACAGCUCGCAGUCAAG,0.0324
